PubChem BioAssay AID686970 (National Center for Advancing Translational Sciences (NCATS), 2013)
The campaign covered roughly 360,000 compounds. About 6,000 (1.7%) were called active. The inconclusive results got no clear call from the source; some entries with a clear call stand among them for comparison. Calls come from the whole dose curve; as a rule, active = well fitted cell-killing curve with a large enough effect; inconclusive = small, poorly fitted or top-dose-only effect, or effect the other way; inactive = flat fitted curve, though single readings scatter. No potency is given beside an inconclusive call; the fits are too rough.

Assay: qHTS for induction of synthetic lethality in tumor cells producing 2HG: qHTS for the HT-1080-NT fibrosarcoma cell line;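 note: NT is the 2HG producing partner of a matched IDH1 knockdown line; nearly all actives have a fitted effect of over 55% in size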;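 for activity, negative = less viability: 0% = DMSO-treated cells and -100% = media-only wells without cells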
Conditions: HT-1080-NT fibrosarcoma viability, CellTiter-Glo ATP luminescence, 48 h; activity, negative = less viability: at 46.1 µM (top of the series) unless noted
How it was run: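 Luminescent CellTiter-Glo readout after 48 hours of compound exposure at 37 degrees C defined viability of HT-1080-NT cells. Activity was normalized to DMSO wells and cell-free media wells; concentration-response curves were fitted and assigned curve classes.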
Potency is the fitted concentration of half-maximal effect; tags give direction and shape of the fitted curve.

SMILES	Potency	activity, negative = less viability
S=C(Nc1ccc2nsnc2c1)N1CCCCC1	inconclusive [cytotoxic, single point]	
O=C(CNS(=O)(=O)Cc1ccccc1)NNc1ccccc1	inconclusive [cytotoxic, partial curve]	
CC(=O)Nc1ccc(NC(=O)c2cc(=O)c3ccc(C)cc3o2)cc1	inconclusive [cytotoxic, single point]	
Cc1ccc2c(=O)c(C(=O)NCc3cccs3)c[nH]c2c1	inactive	
CCCCCCCCN1C(=O)[C@H](CC(=O)NCc2cccs2)C[C@@]2(C(=O)OC)CCCCC=C12	inconclusive [cytotoxic, single point]	
Cn1c(SCC(=O)NC2CCCC2)nnc1-c1ccncc1	inactive	
NS(=O)(=O)c1ccc(Nc2nc(-c3ccccc3)cs2)cc1	inconclusive [cytotoxic, single point]	
Cc1nn(-c2ccccc2Cl)c(Cl)c1/C=N/Nc1nc2ccccc2s1		inconclusive: -12.5% [cytotoxic]
COc1ccc(CCNC(=O)Cn2c([N+](=O)[O-])cnc2C)cc1OC	inactive	
Cc1cc(C)c(C)c(S(=O)(=O)ON2C(=O)c3ccccc3C2=O)c1C	inconclusive [cytotoxic, partial curve]	
Cc1ccccc1C(=O)NNc1ccc(-c2csnn2)cc1	inconclusive [cytotoxic, single point]	
Cc1cc(C)cc(OCC(=O)Nc2ccncc2)c1	inactive	
COc1cc(OC)cc(-c2nc3ccccc3c(=O)n2OC(=O)c2ccc(C)c(C)c2)c1	inconclusive [cytotoxic, partial curve]	
COc1ccc(-c2cc(N)n(S(=O)(=O)c3ccc(C)cc3)n2)c(OC)c1	inactive	
CC(=O)Oc1ccc2ccccc2c1C(NC(=O)Cc1ccccc1)c1ccc(Cl)cc1 (configuration not stated)	inconclusive [cytotoxic, single point]	
C=CCNC(=O)c1ccc2c3n(nc2c1)-c1ccccc1CO3	inconclusive [cytotoxic, single point]	
Cc1ccc(-c2nc3n(n2)Cc2ccccc2-3)cc1	inconclusive [cytotoxic, partial curve]	
Cc1ccc(C)c(S(=O)(=O)Nc2ccccc2C(=O)Nc2cc(C)on2)c1	inconclusive [cytotoxic, partial curve]	
COc1ccc(C2=NN(C(=O)c3ccc(Cl)c([N+](=O)[O-])c3)C(c3ccccc3)C2)cc1 (configuration not stated)	inconclusive [cytotoxic, single point]	
OCCN(Cc1ccccc1)CC(O)COc1ccc(-c2ccccc2)cc1 (configuration not stated)	inconclusive [cytotoxic, single point]	
CCn1c(C)nnc1SCC(=O)NC1CCCC1	inactive	
O=C(CN(c1cccc(Br)c1)S(=O)(=O)c1ccccc1)N/N=C/c1cc([N+](=O)[O-])ccc1O	active: 7.31 µM	
Cc1cc(Cn2nc(-c3ccccc3)cc2C(=O)NCc2cccc(C(F)(F)F)c2)on1	inconclusive [cytotoxic, single point]	
CCN(CC)C(=O)CSc1nc2cc3c(cc2c(=O)n1Cc1ccc(OC)cc1)OCO3	inconclusive [cytotoxic, single point]	

SMILES	Potency	activity, negative = less viability
Fc1ccccc1COc1ccc2ccccc2c1CNc1nn[nH]n1	active: 13 µM	
O=C(NCc1cccc(Cl)c1)C1CCCN(c2ncnc3c2nc2n3CCCCC2)C1 (configuration not stated)	inactive	
CCCN(CCC)C(=O)c1ccc2c(c1)N(Cc1ccccc1)C(=O)CS2=O (configuration not stated)	inactive	
CCCCn1c(NC(=O)c2ccco2)c(S(=O)(=O)c2ccc(C)cc2)c2nc3ccccc3nc21	inconclusive [cytotoxic, single point]	
CCOc1nc(-c2ccccc2)ccc1-c1noc(-c2cccnc2)n1	inactive	
Cn1cc(CN2CCC(C(=O)NC(c3ccc(-c4ccccc4)cc3)c3cnccn3)CC2)c2ccccc21 (configuration not stated)	active: 5.17 µM	
Cc1ccc(-c2nc3ncccc3o2)cc1NC(=O)c1ccc([N+](=O)[O-])o1	inconclusive [cytotoxic, full curve, poor fit]	
COc1ccc(Cn2c(/C=C/c3ccccc3)nc3ccccc32)cc1	active: 11.2 µM	
Cc1cccn2c(=O)c3cc(C(=O)NC4CCS(=O)(=O)C4)n(Cc4ccccc4)c3nc12 (configuration not stated)	inconclusive [cytotoxic, partial curve]	
Cc1ccc(C2C(C#N)=C(N)Oc3cc4c(cc32)OCO4)cc1 (configuration not stated)	inconclusive [cytotoxic, single point]	
COc1ccc(OC)c(NC(=O)CSCC(=O)O)c1	inactive	
CCOc1ccc2nc(N3CCCC(C(=O)NCCCN4CCCCC4)C3)sc2c1 (configuration not stated)	active: 18.4 µM	
COC(=O)c1ccc2c(c1)C(C)(C)C(/C=C/c1ccc(O)cc1)=[N+]2C	active: 5.01 µM	
Cc1[nH]n(-c2ccc([N+](=O)[O-])cc2)c(=O)c1/C=N/N1CCOCC1	inconclusive [cytotoxic, single point]	
O=[N+]([O-])c1cc2c(c([N+](=O)[O-])c1)Nc1ccccc1O2	inconclusive [cytotoxic, partial curve]	
CCOC(=O)CNC(=O)c1cc(OC)cc(OC)c1	inconclusive [rising, single point]	
COc1ccc(NC(=O)/C(C#N)=C\c2cc(C)n(-c3ccc4c(c3)OCO4)c2C)cc1	active: 1.84 µM	
CC(=O)c1cccc(NC(=O)CCNC(=O)c2ccccc2Cl)c1	inconclusive [rising, partial curve, poor fit]	
CCCC[C@@H]1C[C@H]1[C@@H](NC(=O)c1cccs1)c1ccc(C(F)(F)F)cc1	inactive	
Cc1ccc2nc(-c3ccccc3)nn2c1	inactive	
O=S(=O)(Nc1cccnc1)c1cccnc1	inactive	
COc1ccc(Cl)cc1NC(=O)CN(C)C(=O)c1sc2ccccc2c1Cl	inconclusive [cytotoxic, single point]	
Cc1ccc(-c2nn(-c3ccccc3)cc2CNCc2ccccc2)cc1	active: 16.4 µM	
O=C(CSc1nnc2ccc(-c3ccc(Br)cc3)nn12)NCC1CCCO1 (configuration not stated)	inactive	

SMILES	Potency	activity, negative = less viability
CC(=O)c1nn(-c2cccc(Br)c2)cc1C(=O)c1ccccc1	inconclusive [cytotoxic, single point]	
O=C(Cc1cccs1)N/N=C/c1ccc(OCc2ccccc2)cc1		inconclusive: -30.8% [cytotoxic]
COc1ccc(C(C)(O)c2nc(-c3cc(F)cc(F)c3)cs2)cc1 (configuration not stated)	inconclusive [cytotoxic, single point]	
Nc1c(C(=O)Nc2ccc3c(c2)OCCO3)nnn1CCc1ccccc1	inconclusive [cytotoxic, single point]	
O=C(Nc1cccc(S(=O)(=O)N2CCCC2)c1)[C@H]1C[C@H](O)[C@@H](CO)O1	inactive	
Cc1cc2c(cc1S(=O)(=O)C(C)CC(=O)NCc1ccco1)OCC(=O)N2 (configuration not stated)	inactive	
CN1CCN(C=NC2=NN(c3cccc(C(F)(F)F)c3)CC2)CC1	inactive	
CCn1c(=O)c2cc(C(=O)NCC(OC)OC)sc2c2ccccc21	inactive	
O=C(CS(=O)c1ccc(C(F)(F)F)cc1[N+](=O)[O-])Oc1ccc(Cl)cc1 (configuration not stated)	inconclusive [cytotoxic, single point]	
CCOC(=O)c1cccc2c1-c1ccccc1/C2=N/O	inconclusive [cytotoxic, single point]	
O=C1c2cccc(NCCNCCO)c2C(=O)c2cccc(NCCNCCO)c21	inconclusive [cytotoxic, partial curve]	
COc1cc(C(C(=O)NCC2CCCO2)N(C(=O)Cn2nnc3ccccc32)c2ccc(OC)c(OC)c2)ccc1O (configuration not stated)	inconclusive [rising, single point]	
O=C(NCc1cccnc1)c1ccc(COc2ccccc2Br)o1	inconclusive [cytotoxic, single point]	
COc1ccc(CC(N)c2csc(NC(=O)Cc3ccccc3)n2)cc1 (configuration not stated)	active: 23.1 µM	
Cc1ccc(N2C(=O)c3cccc4c(Oc5ccccc5[N+](=O)[O-])ccc(c34)C2=O)c(C)c1	inactive	
CCn1c2ccccc2c2cc(/C=N/NC(=O)c3cc(O)cc(O)c3)ccc21	inconclusive [cytotoxic, single point]	
O=C(Cc1cccs1)Nc1ccccc1-c1nc2ccccc2[nH]1	inconclusive [cytotoxic, single point]	
COc1ccc(NC(=O)C[C@H]2C(=O)N(Cc3ccccc3)C[C@@H]2C)cc1	inactive	
C=CCN(C(=O)c1cccc(S(=O)(=O)N2CCN(C)CC2)c1)c1nc(-c2ccccc2)cs1	active: 23.1 µM	
CCOc1ccc2nc(COC(=O)c3cccc([N+](=O)[O-])c3)c(C(C)=O)[n+]([O-])c2c1	inactive	
COCCNC(=O)c1ccc2c(c1)nc(C)n2-c1cc(OC)c(OC)c(OC)c1	inconclusive [rising, partial curve, poor fit]	
CC(=O)c1ccc2c(c1)N(Cc1ccc3ccccc3c1)C(=O)C(C)S2 (configuration not stated)		inconclusive: -5.8% [cytotoxic]
COc1ccc(CNCC(O)COc2ccc(C(C)(C)c3ccccc3)cc2)cc1 (configuration not stated)	active: 20.6 µM	
Cc1ccc(OCC(=O)Nc2ccc(NC(=O)c3cccs3)cc2)c(C)c1	inconclusive [cytotoxic, partial curve]	
